Measured values reported in paper PMC4336329 (PLoS ONE, 2015).
Screen size: about 310,000 compounds; about 2,200 (0.71%) showed an effect of 50% or more. Effects have a minus sign here. Some of the results follow.

target: human ether-à-go-go-related gene (hERG) potassium channel (human, UniProt Q12809); experiment: primary screen, population patch clamp on CHO cells stably expressing hERG
Sequence (Q12809 whole entry, looked up): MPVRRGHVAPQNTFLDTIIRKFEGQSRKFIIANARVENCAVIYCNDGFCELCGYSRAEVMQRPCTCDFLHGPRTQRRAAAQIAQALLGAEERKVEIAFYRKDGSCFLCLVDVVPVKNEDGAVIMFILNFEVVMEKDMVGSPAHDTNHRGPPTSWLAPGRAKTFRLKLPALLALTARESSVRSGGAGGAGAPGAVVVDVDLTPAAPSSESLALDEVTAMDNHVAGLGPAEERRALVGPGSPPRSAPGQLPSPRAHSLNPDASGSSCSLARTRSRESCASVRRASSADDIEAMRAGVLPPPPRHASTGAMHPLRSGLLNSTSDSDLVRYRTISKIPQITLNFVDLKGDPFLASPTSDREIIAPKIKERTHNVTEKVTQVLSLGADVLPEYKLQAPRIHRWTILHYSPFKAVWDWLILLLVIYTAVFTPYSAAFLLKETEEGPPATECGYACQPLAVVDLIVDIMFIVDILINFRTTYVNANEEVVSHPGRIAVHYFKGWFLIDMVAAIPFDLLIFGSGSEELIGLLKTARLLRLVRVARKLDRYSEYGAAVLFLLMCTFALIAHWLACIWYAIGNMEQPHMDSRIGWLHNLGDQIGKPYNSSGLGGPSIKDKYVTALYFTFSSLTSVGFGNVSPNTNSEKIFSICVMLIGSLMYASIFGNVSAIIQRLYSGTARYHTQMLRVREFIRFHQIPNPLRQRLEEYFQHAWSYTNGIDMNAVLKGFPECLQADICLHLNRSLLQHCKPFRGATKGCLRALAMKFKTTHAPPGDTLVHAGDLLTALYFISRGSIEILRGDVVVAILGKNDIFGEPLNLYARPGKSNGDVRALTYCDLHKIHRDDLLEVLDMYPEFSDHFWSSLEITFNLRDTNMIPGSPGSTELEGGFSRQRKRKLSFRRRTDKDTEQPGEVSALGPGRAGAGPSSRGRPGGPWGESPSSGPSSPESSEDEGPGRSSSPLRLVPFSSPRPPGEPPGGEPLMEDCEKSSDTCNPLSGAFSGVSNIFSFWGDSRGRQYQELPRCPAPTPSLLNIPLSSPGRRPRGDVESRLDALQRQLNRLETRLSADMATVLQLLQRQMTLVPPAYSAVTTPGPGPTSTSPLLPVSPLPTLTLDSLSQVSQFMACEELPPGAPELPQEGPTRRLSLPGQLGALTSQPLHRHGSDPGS

Row | Structure (SMILES) | hERG current change (%, negative = inhibition) at 1uM
1 | CC1(C)CC(=O)C(C=NCCN2CCOCC2)=C(O)C1 | 11.7%
2 | COc1ccc(C2=NN(CCC(=O)NCC3CCCO3)C(=O)CC2)cc1 (stereo not shown) | 15.2%
3 | CCC(C)(C(=O)NC1CCCC1)N(C(C)=O)c1ccc(C)cc1 (stereo not shown) | -2.27%
4 | COc1ccccc1C1CCN(Cc2cccc([N+](=O)[O-])c2)CC1 | -15%
5 | Cc1sc(NC(=O)c2ccccc2)c(C(=O)NC(C)C)c1C | 8.36%
6 | C=CCOc1ccc(/C=C\c2nc(O)c([N+](=O)[O-])c(=O)[nH]2)cc1OCC | 18.5%
7 | O=C(C=C1NCCN1)c1ccccc1 | 16.2%
8 | CCc1nnc(NS(=O)(=O)c2ccc(NC(=O)c3ccccc3)cc2)s1 | 10.4%
9 | CC(C)(C)c1ccc(S(=O)(=O)Nc2ccc(C(=O)N3CCCC3)cc2)cc1 | -4.4%
10 | CC(C)(C)c1ccc(NC(=O)COC(=O)c2ccc(CN3CCCC3=O)cc2)cc1 | 1.8%
11 | Cc1ccc(NC(=O)C(=O)c2ccc(C)cc2)cc1 | 13.5%
12 | COC(=O)COc1cccc2c(=O)n(CC(=O)N3CCCCC3)ccc12 | 3.87%
13 | C=CCN1C(=O)/C(=C/c2cccs2)C(=O)NC1=S | 9.76%
14 | C#CCOCCOCCOCCNc1nc(N2CCN(C(=O)[C@H](CCCCN)n3cc([C@@H](N)C(C)CC)nn3)CC2)nc(N2CCN(C(=O)[C@H](Cc3ccc(O)cc3)n3cc([C@@H](N)C(C)CC)nn3)CC2)n1.Cl (stereo partly shown) | 11.5%
15 | CC(=O)Nc1ccc(S(=O)(=O)NCCSCc2cccc(Cl)c2)cc1 | 11.2%
16 | N#Cc1ccc(OCC(=O)N2CCN(S(=O)(=O)c3ccc(Cl)s3)CC2)cc1 | -22.7%
17 | COc1ccccc1-n1ccnc1SCC(=O)NC1CCCC1 | 15.1%
18 | O=c1cc(N2CCc3ccccc32)[nH]c(=O)n1-c1ccccc1Cl | 16.6%
19 | COC(=O)C1=C(CN2CCSCC2)NC(=O)NC1c1cc(C)ccc1C (stereo not shown) | 1.86%
20 | Cc1cccc(C)c1NC(=O)N1CCC(C(=O)c2ccc(F)cc2)CC1 | -17%
21 | CCOC(=O)C(C)On1c(SC(C)C(=O)OCC)nc2ccccc2c1=O (stereo not shown) | -22%
22 | O=C(Cc1cccs1)NNC(=S)NC(=O)c1ccco1 | 15.7%
23 | CCN(CC(=O)NCc1ccc(F)cc1)C(=O)/C=C/c1ccc(OC)cc1 | -3.96%
24 | COc1ccc(Cc2nc(-c3ccc(-n4cccc4)cc3)no2)cc1 | 6.19%
25 | CCn1cc(C(=O)N2CC=C(c3ccccc3)CC2)c(=O)c2ccc(C)nc21 | -0.904%
26 | Cc1ccccc1C(=O)OC(C)C(=O)NCc1ccc2c(c1)OCO2 (stereo not shown) | 1.46%
27 | COc1ccc(S(=O)(=O)N2CCCC2)c2ccccc12 | 21%
28 | OCc1c[nH]c(=S)n1CCOc1cccc(C(F)(F)F)c1 | 12.7%

Row | Structure (SMILES) | hERG current change (%, negative = inhibition) at 1uM
29 | Cc1ccc2c(c1)N(CCC(=O)NCCN1CCOCC1)C(=O)CO2 | 7.66%
30 | CN1CCC(=NNC(=O)CN(c2cccc(Br)c2)S(C)(=O)=O)CC1 | 1.22%
31 | CCN(CC)CCNC(=O)c1ccc(NC(=O)C2CCN(c3ncnc4sc(C)c(C)c34)CC2)cc1 | 15.7%
32 | Cc1ccc(O)c(NC(=O)c2cc3nc4c(c(C(F)(F)F)n3n2)CCc2ccccc2-4)c1 | 2.48%
33 | O=C(CSc1nnc(-c2ccc(O)cc2)n1Cc1ccccc1)NNC(=O)c1ccc(Br)cc1 | 0.228%
34 | O=C(NNC(=O)c1ccccc1Br)c1ccc(Cl)c(Cl)c1 | -0.397%
35 | CC(C(=O)Nc1ncc2c(n1)CC(C)(C)CC2=O)N1C(=O)c2ccccc2C1=O (stereo not shown) | -12%
36 | CCC12CN3CCN(CC(C3)/C1=N\NC(=O)c1ccc(Cl)cc1)C2 | 1%
37 | Cc1cc(C)n(CC(=O)NNC(=O)COc2ccc(Cl)cc2Cl)n1 | 3.06%
38 | COc1cc(OC)c2c(c1)C(=O)OC2 | -3.87%
39 | C=CCOc1cccc(C2/C(=C(\O)c3ccc(F)cc3)C(=O)C(=O)N2CCN(C)C)c1 (stereo not shown) | 8.84%
40 | COc1ccc(C)cc1NC(=O)CCCN1C(=S)NC(C)(C)CC1C (stereo not shown) | 14.7%
41 | CCN(CC)NC(=S)Nc1ccccc1 | 9.86%
42 | COc1ccc(CCN(CC(=O)NC2CCCC2)C(=O)CCC(=O)Nc2cc(C)on2)cc1OC | 9.11%
43 | COc1cc(C(F)(F)F)c(C(=O)N(C)c2ccc(Cl)cc2)cn1 | 7.06%
44 | COC(=O)c1ccc(COC(=O)c2ccc(S(=O)(=O)N3CCC(C)CC3)cc2)o1 | 7.53%
45 | Cn1c(=O)oc2cc(S(=O)(=O)N3CCC(C(=O)NCc4ccc(F)cc4)CC3)ccc21 | 4.7%
46 | CCCc1nc2ccccc2c(C(=O)OCc2nnc(-c3cc(OC)c(OC)c(OC)c3)o2)c1CC | 10.1%
47 | COC(=O)c1c(-c2ccncc2)csc1NC(=O)c1ccoc1C | 4.49%
48 | O=C(NCCc1ccccc1)C(=O)NCC1OCCN1S(=O)(=O)c1ccc2c(c1)OCCO2 (stereo not shown) | 15.3%
49 | CC(C)(OC(=O)NC(=O)C(F)(F)F)C(C)(C)OC(=O)NC(=O)C(F)(F)F | 23.9%
50 | CC(=O)N1CCOc2cc(S(=O)(=O)N3CCN(c4ccccc4)CC3)c(Cl)cc21 | 12.7%
51 | CCc1c(C(=O)NNC(=S)NCCc2ccccc2)csc1C | 4.13%
52 | Cc1c(C(=O)N2CCCC2)oc2c1-c1nn(CC(=O)NCCCOC(C)C)cc1CC2 | 16.7%
53 | COC(=O)c1ccc(COc2cccc(OC)c2)o1 | 11.2%
54 | COc1ccc(NC(=S)NNC(=O)C2CC2c2ccc(C)cc2)cc1 (stereo not shown) | 0.837%
55 | O=C(O)c1ccc(-n2nnnc2SCc2cccc(Br)c2)cc1 | 14.6%
